The values below come from paper PMC4336329 (PLoS ONE, 2015).

In all, about 310,000 compounds went through this assay and about 2,200 (0.71%) showed an effect of 50% or more. Effects have a minus sign here. Some of the results follow.

Sequence of human ether-à-go-go-related gene (hERG) potassium channel (Q12809 whole entry, looked up): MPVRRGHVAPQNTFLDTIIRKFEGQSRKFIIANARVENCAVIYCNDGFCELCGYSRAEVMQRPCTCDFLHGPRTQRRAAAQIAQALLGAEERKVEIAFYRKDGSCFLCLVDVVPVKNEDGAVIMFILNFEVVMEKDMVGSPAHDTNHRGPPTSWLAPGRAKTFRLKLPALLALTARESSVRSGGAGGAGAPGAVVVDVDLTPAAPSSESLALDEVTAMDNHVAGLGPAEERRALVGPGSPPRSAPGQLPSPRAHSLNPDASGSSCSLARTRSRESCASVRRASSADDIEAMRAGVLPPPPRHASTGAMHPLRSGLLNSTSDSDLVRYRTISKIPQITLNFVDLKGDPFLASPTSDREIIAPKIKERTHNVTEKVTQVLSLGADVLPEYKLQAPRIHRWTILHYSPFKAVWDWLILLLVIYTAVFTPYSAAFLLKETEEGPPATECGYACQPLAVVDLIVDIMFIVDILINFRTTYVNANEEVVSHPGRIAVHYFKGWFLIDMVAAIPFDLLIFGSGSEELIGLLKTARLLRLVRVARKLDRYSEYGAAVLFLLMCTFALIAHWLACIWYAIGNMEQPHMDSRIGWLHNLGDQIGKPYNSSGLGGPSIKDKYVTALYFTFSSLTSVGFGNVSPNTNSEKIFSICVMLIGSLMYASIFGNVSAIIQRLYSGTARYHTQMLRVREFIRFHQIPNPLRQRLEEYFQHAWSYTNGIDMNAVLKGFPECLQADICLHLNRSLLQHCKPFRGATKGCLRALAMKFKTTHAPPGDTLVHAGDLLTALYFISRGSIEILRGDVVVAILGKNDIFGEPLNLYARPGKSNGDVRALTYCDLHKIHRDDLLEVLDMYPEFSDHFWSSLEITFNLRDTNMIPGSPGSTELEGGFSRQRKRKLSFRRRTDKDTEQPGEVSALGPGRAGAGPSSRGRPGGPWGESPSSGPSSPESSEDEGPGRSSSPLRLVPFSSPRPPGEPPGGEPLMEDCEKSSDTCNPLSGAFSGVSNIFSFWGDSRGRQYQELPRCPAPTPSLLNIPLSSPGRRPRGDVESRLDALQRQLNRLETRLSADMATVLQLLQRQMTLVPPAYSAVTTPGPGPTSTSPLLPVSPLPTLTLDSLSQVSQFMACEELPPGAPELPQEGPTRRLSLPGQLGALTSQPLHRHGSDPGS

The experiment concerns the target human ether-à-go-go-related gene (hERG) potassium channel (human, UniProt Q12809). Put plainly: primary screen, population patch clamp on CHO cells stably expressing hERG.
`OCC1OC(n2cnc3ccccc32)CC1O` (stereo not drawn): the “hERG current change (%, negative = inhibition) at 1uM” value worked out at 9.78%. To `Cc1cc(SCc2ccccc2C)nc(=O)[nH]1` belongs 16%. In the case of `COc1cc(S(=O)(=O)NCCCN2CCOCC2)ccc1Cl` it was 9.28%; in that of `O=C(Cn1nc(-c2ccc(Cl)cc2)c2ccccc2c1=O)NN1CCOCC1`, 13.2%.

As for `Cc1ccc(N2CC(C(=O)Nc3ccc(N4CCOCC4)cc3)CC2=O)cc1C` (stereo not drawn), the “hERG current change (%, negative = inhibition) at 1uM” value is recorded as 15%.

Turning to `C/C(CC(=O)NC12CC3CC(CC(C3)C1)C2)=N\NC(=O)c1ccc(C)cc1`, the “hERG current change (%, negative = inhibition) at 1uM” value came to 19%. For the compound `CCc1nc2ccccc2[nH]c1=O`, the “hERG current change (%, negative = inhibition) at 1uM” value is 8.08%. As for `O=C(NCc1cc(Br)cc(Br)c1OC(=O)c1ccccc1[N+](=O)[O-])c1ccccc1`, the “hERG current change (%, negative = inhibition) at 1uM” value is 13.1%.

Regarding `O=C(NC(=S)NNS(=O)(=O)c1ccccc1)c1ccccc1[N+](=O)[O-]`, the “hERG current change (%, negative = inhibition) at 1uM” value came out at 15.5%. To `C/C(=C\C(=O)c1ccc(Br)cc1)Nc1ccc(Cl)cc1` belongs 12.6%; to `CC(OC(=O)Cn1cc(C(F)(F)F)ccc1=O)C(=O)NC(C)c1ccc(Cl)cc1Cl` (stereo not drawn), 11.9%. In the case of `Cc1ccc(Cl)cc1N1CCN(C(=O)CN2C(=O)c3cccc4cccc2c34)CC1` it was 5.11%. To `CN(Cc1ccccc1)S(=O)(=O)c1ccc(NS(C)(=O)=O)cc1` belongs -13.3%; to `CCCCC(=O)Nc1ccc(C(=O)NCC(=O)OC)cc1`, 7.3%; to `COc1ccc(C(=O)n2nc(-c3ccco3)nc2SC)cc1OC`, 4.51%. Turning to `CCCC(=O)Nc1cc(-c2nn(C)c(=O)c3ccccc23)ccc1N1CCOCC1`, the “hERG current change (%, negative = inhibition) at 1uM” value was -15.1%. Regarding `CCC(C(=O)NC1CCCC1)N(Cc1cccs1)C(=O)Cn1nnc(-c2ccc(OC)c(OC)c2)n1` (stereo not drawn), the “hERG current change (%, negative = inhibition) at 1uM” value was 1.45%. To `COc1ccc(C(=O)N2CCCCCC2)cc1OC1CCN(C(C)=O)CC1` belongs 6.96%; to `CCN(C(=O)COC(=O)CCn1c(C)csc1=O)c1c(N)n(Cc2ccccc2)c(=O)[nH]c1=O`, 7.6%. To `NC(=O)C1CCCN(CC(O)COCc2ccc(Cl)cc2)C1.O=C(O)C(=O)O` (stereo not drawn) belongs 11.5%. To `CCOC(=O)C(C(=O)NCC1CCCO1)C1CCCCC1` (stereo not drawn) belongs 12.7%.

For `O=C1CCC(C(=O)OC(C(=O)Nc2ccc([N+](=O)[O-])cc2Br)c2ccccc2)=NN1` (stereo not drawn), the “hERG current change (%, negative = inhibition) at 1uM” value was 0.119%. In the case of `Cc1ccc(C(=O)OCC(=O)Nc2cccc(S(=O)(=O)N3CCOCC3)c2)o1` it was -19.2%; in that of `O=C(Nc1ccn(Cc2c(F)c(F)cc(F)c2F)n1)c1cccc(Cn2cc([N+](=O)[O-])cn2)c1`, 3.98%; in that of `Cn1c(=O)c2c(nc(N/N=C/c3c(O)n(-c4ccccc4)c(=S)[nH]c3=O)n2C)n(C)c1=O`, 4.23%. In the case of `O=C(Cn1nnc2ccccc2c1=O)N[C@H](C(=O)O)c1ccccc1` it was 7.56%. In the case of `CCCC(=O)c1cc(F)c(N2CCN(S(=O)(=O)c3ccccc3)CC2)cc1C` it was 8.01%. `O=C(COC(=O)CCCc1c[nH]c2ccccc12)Nc1ccc2c(c1)OCO2`: the “hERG current change (%, negative = inhibition) at 1uM” value was found to be 17.7%.

`CCCc1cc(=O)n2nc(N3CCC(C(=O)NCc4ccco4)CC3)sc2n1`: the “hERG current change (%, negative = inhibition) at 1uM” value was found to be 5.15%. Turning to `COc1ccc2c(c1)C(=O)C(=O)N2CC1COc2ccccc2O1` (stereo not drawn), the “hERG current change (%, negative = inhibition) at 1uM” value came to 13.7%. Regarding `N#C/C(=N\Nc1ccc(Cl)cc1)C(=N)N1CCCCC1`, the “hERG current change (%, negative = inhibition) at 1uM” value came to 0.289%.

Take `COC(=O)c1ccc(S(=O)(=O)NCc2cccc(OC)c2)n1C`: the “hERG current change (%, negative = inhibition) at 1uM” value turned out to be 7.83%. To `O=C(Nc1nc(-c2ccc(F)c(F)c2)cs1)Nc1ccc(F)cc1F` belongs 14%; to `Cc1ccccc1-c1nc(CS(=O)CC(=O)NCCN2CCOCC2)c(C)o1` (stereo not drawn), 10.6%; to `CS(=O)(=O)N(CC(=O)N1CCCCCC1)c1ccc(Cl)cc1`, 11.7%. To `Cc1ccc(S(=O)(=O)NCc2ccccn2)c(C)c1` belongs 4.97%. To `COc1cccc(CN2CCc3ccc(NC(=O)CCc4ccc(C)cc4)cc3C2)c1O` belongs -2.95%. On to `COc1ccc(N(C)S(=O)(=O)c2cccc(C(=O)NCC(c3ccco3)N3CCCC3)c2)cc1` (stereo not drawn), for which the “hERG current change (%, negative = inhibition) at 1uM” value is -1.85%. In the case of `Cc1cccc(-c2nsc(SCC(=O)NCc3ccco3)n2)c1` it was 9.34%.

For the compound `Cc1ccc(NC(=O)OCc2ccccc2S(C)=O)cc1` (stereo not drawn), the “hERG current change (%, negative = inhibition) at 1uM” value is -2.24%.

Take `COc1cc(NC(=O)CN(c2ccc(C)cc2)S(=O)(=O)c2c(C)n[nH]c2C)cc(OC)c1`: the “hERG current change (%, negative = inhibition) at 1uM” value amounted to 10.2%.

With `Cc1noc(C)c1S(=O)(=O)Nc1ccc(C(=O)O)cc1`, the “hERG current change (%, negative = inhibition) at 1uM” value was found to be 6.47%. In the case of `O=C(NCCc1ccccc1)c1ccc2[nH]c(=O)c(=O)[nH]c2c1` it was 7.46%; in that of `O=C(NCCc1ccc(Cl)cc1)c1cc(-c2ccncc2)nc2ccccc12`, 9.38%. To `Cc1oc2nc(SCC(=O)NCc3cccnc3)nc(N)c2c1C` belongs -2.53%; to `COc1cc(NC(=O)c2ccc3c(SCC(=O)O)c4c(nc3c2)CCC4)cc(OC)c1OC`, 9.89%; to `COC(=O)C1=C(C)n2nnnc2NC1c1ccc(Cl)cc1` (stereo not drawn), 2.32%. To `CCOC(=O)C(CC)n1cnc2c(nnn2-c2ccc(C)cc2)c1=O` (stereo not drawn) belongs -5.14%; to `O=C(Nc1ccccc1Br)c1ccc(N2CCCC2=O)cc1`, 10.1%. For `CCN1CCN(c2nnc(-c3ccc(C)cc3)c3ccccc23)CC1`, the “hERG current change (%, negative = inhibition) at 1uM” value is reported as -6.01%. Take `COc1ccc(/C=C/C(=O)N2CCN(c3ccccc3)CC2)cc1S(=O)(=O)N1CCOCC1`: the “hERG current change (%, negative = inhibition) at 1uM” value is given as 5.11%. To `O=C(CSc1ncccn1)Nc1ncc(C(F)(F)F)cc1Cl` belongs 36.6%; to `COc1ccc(S(=O)(=O)NCC2CC3C=CC2C3)cc1OC` (stereo not drawn), 2.85%; to `O=c1nc2n(c3cccc(Cl)c13)CCCCC2`, 6.32%.

As to `COc1cccc(NC(=O)C(C#N)Cc2ccncc2)c1` (stereo not drawn), the “hERG current change (%, negative = inhibition) at 1uM” value was -1.94%. On to `COc1ccc(CCNC2CCCCCC2)cc1`, for which the “hERG current change (%, negative = inhibition) at 1uM” value worked out at 12.8%.

Regarding `CC(=O)c1cccc(NCC(=O)N2CCN(S(=O)(=O)c3ccccc3)CC2)c1`, the “hERG current change (%, negative = inhibition) at 1uM” value was 1.24%.

Turning to `Cc1ccc(S(=O)(=O)N2CCCC(C(=O)N3CCN(C)CC3)C2)cc1` (stereo not drawn), the “hERG current change (%, negative = inhibition) at 1uM” value is given as 15.6%. To `CC(C)c1c(C(=O)N/N=C/c2ccc(OCc3ccc(F)cc3)cc2)nnn1-c1nonc1N` belongs 16.7%. Regarding `O=C(C1=C[C@H](C2CC2)C[C@H](OCCCCO)O1)N1CCOCC1`, the “hERG current change (%, negative = inhibition) at 1uM” value was determined as 15.6%. In the case of `Cc1cccc(N2C(=O)CS/C2=N\NC(=O)c2ccc(Br)cc2)c1C` it was 8.97%. In the case of `COc1cccc(C(=O)NNC(=O)C(=O)Nc2cccc3ccccc23)c1` it was 14.5%; in that of `Cc1ccc(C2=NN(CCC(=O)NC3CCCC3)C(=O)CC2)cc1`, -3.78%; in that of `Cc1ccc(CNCC2CCCO2)s1.Cl` (stereo not drawn), 7.59%. `CC(=O)N1CCC2(CC1)C(C#N)=C(N)Oc1n[nH]c(CSc3ccc(C)cc3)c12`: the “hERG current change (%, negative = inhibition) at 1uM” value stood at 9.32%.

`CC1CCN(C(=O)CN(C)S(=O)(=O)c2cccc3nsnc23)CC1`: the “hERG current change (%, negative = inhibition) at 1uM” value stood at 7.74%. Regarding `COc1ccc(C2C3=C(CC(C)(C)CC3=O)Nc3n[nH]c(C)c32)cc1` (stereo not drawn), the “hERG current change (%, negative = inhibition) at 1uM” value is on record as -1.8%. In the case of `CN1CCN(C(=S)NC(=O)c2cccc(S(=O)(=O)N(C)C)c2)CC1` it was 16%; in that of `CC(NC(=O)COc1ccccc1)C(=O)OCC(=O)c1cc2ccccc2o1` (stereo not drawn), 15.4%; in that of `O=C(CN(C1CCCCC1)S(=O)(=O)c1ccc(F)cc1)NC1CC1`, 5.04%. As for `COc1ccc(CN2CCN(c3ccccc3OC)CC2)cc1OC.O=C(O)C(=O)O`, the “hERG current change (%, negative = inhibition) at 1uM” value was -40.3%. For `CCN(C(=O)CSc1nnc(NC2CCCCC2)s1)C1CCS(=O)(=O)C1` (stereo not drawn), the “hERG current change (%, negative = inhibition) at 1uM” value turned out to be 2.2%. In the case of `CC(=O)Nc1ccc(S(=O)(=O)Nc2nc3ccccc3nc2N2CCCC2)cc1` it was -3.61%. To `C/C(=N\OCC(=O)Nc1ccc(Br)cc1)c1cccs1` belongs 9.14%. Take `CCc1ccc(Nc2nnc(SC3CCOC3=O)s2)cc1` (stereo not drawn): the “hERG current change (%, negative = inhibition) at 1uM” value was determined as 8.47%. To `CS(=O)(=O)Nc1ccc(C(=O)N2CCN(c3ccccc3)CC2)cc1` belongs -31.4%; to `Cc1nn(C(C)C(=O)NCCc2ccccc2)c(=O)c2cc3occc3n12` (stereo not drawn), 15.6%. Turning to `N#CCCn1nc(Cc2cccc3ccccc23)c(C#N)c1N`, the “hERG current change (%, negative = inhibition) at 1uM” value worked out at 11.9%. In the case of `COC(=O)Cc1[nH]nc2c1C(c1cc(OC)c(OC)c(OC)c1)C(C#N)=C(N)O2` (stereo not drawn) it was 9.7%; in that of `Cc1ccc(C)n1CCN1CCN(C(=O)c2ccc(Cl)cc2)CC1`, -6.34%.

In the case of `CC(C)NC(=O)N1CCC(n2nccc2NC(=O)CCOc2ccccc2)CC1`, the “hERG current change (%, negative = inhibition) at 1uM” value is given as 17.8%.

For the compound `O=C(NN1C(=O)C2C3C=CC(C4CC34)C2C1=O)c1cccc(Br)c1` (stereo not drawn), the “hERG current change (%, negative = inhibition) at 1uM” value stood at 12.6%. In the case of `O=C(NCc1ccc(C(F)(F)F)cc1)C1CC(c2c(Cl)cccc2Cl)=NO1` (stereo not drawn) it was 4.22%; in that of `CCC1CCCCN1CCCNC(=O)c1ccc2c(=O)n(Cc3ccc(OC)cc3)c(=O)[nH]c2c1` (stereo not drawn), 10.6%. To `COc1cc(NC(=O)CN2C(=O)NC3(CCOc4ccccc43)C2=O)cc(OC)c1` (stereo not drawn) belongs 5.65%. Take `COc1ccc([N+](=O)[O-])cc1NS(=O)(=O)c1cc(C(=O)O)ccc1OC`: the “hERG current change (%, negative = inhibition) at 1uM” value is 8.6%. To `COc1cccc(CN(C)C(=O)CC23CC4CC(CC(C4)C2)C3)c1OC` belongs -8.38%.
